The IC50 comes from the fitted curve, where viability falls to half of the control; fits outside the tested doses are given as limits. The AUC spans the tested range (256-fold, ending at the top dose) of the same fit: 1 means no effect, lower means more sensitive. For some of these results: Where the top dose is marked as inferred, it is not printed in the source and was worked back from the curve model. For some of these results: Drugs with an entry number were screened twice under separate entries, and the two screens often disagree.
Tests used:
Experiment in all cases: Viability of human cancer cell lines after 72 h of drug (GDSC screen)
[1] = compound: Fc1cc(-c2ccnc(Nc3ccc(-n4cnc(N5CCOCC5)n4)cc3)n2)cc(N2CCOCC2)c1 [JNK-9L]; details: top dose 5.12 µM; top dose inferred
Method: (§1)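 Human cancer cell lines in 384-well plates, medium with 10% serum, drug for 72 h over a 256-fold dose range (nine 2-fold or five 4-fold steps up to the top dose). Adherent lines were fixed and stained with the nucleic acid dye Syto60, suspension lines read with resazurin; signal relative to control wells, capped at 0 and 100%. One two-parameter sigmoid per drug and line, fitted in a mixed model over all curves with the slope shared within a line.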

[2] = compound: OC[C@H](Cc1ccccc1)Nc1nc(Oc2ccc3c(c2)CCC3)nc2c1ncn2Cc1ccc(-c2ccccc2)cc1 [QS11]; details: top dose 10.24 µM
Method: as §1

[3] = compound: COc1cc(F)c(F)c(Nc2ccc(I)cc2F)c1NS(=O)(=O)C1(C[C@H](O)CO)CC1 [RDEA119]; details: top dose 5 µM, top dose inferred
Method: as §1

[4] = compound: NCC(=O)Nc1ccc(-n2nc(C(F)(F)F)cc2-c2ccc3c(ccc4ccccc43)c2)cc1 [OSU-03012]; details: top dose 16 µM; top dose inferred
Method: as §1

[5] = compound: O=c1[nH]cc(F)c(=O)[nH]1 [5-Fluorouracil]; details: top dose 32 µM; top dose inferred
Method: as §1

[6] = compound: CC(C)(C)c1cc(NC(=O)Nc2ccc(-c3cn4c(n3)sc3cc(OCCN5CCOCC5)ccc34)cc2)no1 [AC220]; details: top dose 1.024 µM; top dose inferred
Method: as §1

[7] = compound: C#Cc1cccc(Nc2ncnc3cc(OC)c(OCCCCCCC(=O)NO)cc23)c1 [CUDC-101]; details: top dose 5.12 µM; top dose inferred
Method: as §1

Row | Cell Line | AUC [1] | IC50 [1] | AUC [2] | IC50 [2] | AUC ([3]; screen: GDSC drug entry 1014) | IC50 ([3]; screen: GDSC drug entry 1014) | AUC ([3]; screen: GDSC drug entry 1526) | IC50 ([3]; screen: GDSC drug entry 1526) | AUC [4] | IC50 [4] | AUC [5] | IC50 [5] | AUC [6] | IC50 [6] | AUC [7] | IC50 [7]
1 | DMS-273 (small cell lung carcinoma, adherent) | 0.36 | 0.128 µM | 0.86 | 9.4 µM | 0.943 | > 5 µM | 0.971 | > 5 µM | 0.694 | 3.63 µM | 0.806 | 17.4 µM | 0.967 | > 1.02 µM | 0.465 | 0.255 µM
2 | LS-513 (large intestine, adherent) | 0.689 | 1.11 µM | 0.977 | > 10.2 µM | 0.427 | 0.196 µM | 0.611 | 0.641 µM | 0.902 | > 16 µM | 0.505 | 2.06 µM | 0.977 | > 1.02 µM | 0.735 | 1.55 µM
3 | MN-60 (B-cell leukaemia, suspension) | 0.646 | 0.827 µM | 0.907 | > 10.2 µM | 0.986 | > 5 µM | 0.978 | > 5 µM | 0.686 | 3.4 µM | 0.805 | 16.9 µM | 0.977 | > 1.02 µM | 0.42 | 0.192 µM
4 | COLO-678 (large intestine, semi-adherent) | 0.7 | 1.39 µM | 0.98 | > 10.2 µM | 0.705 | 1.42 µM | 0.803 | 3.37 µM | 0.896 | > 16 µM | 0.964 | > 32 µM | 0.983 | > 1.02 µM | 0.839 | 5.06 µM
5 | SKN (uterus, adherent) | 0.7 | 1.33 µM | 0.968 | > 10.2 µM | 0.804 | 3.15 µM | 0.822 | 3.76 µM | 0.81 | 10.7 µM | 0.901 | > 32 µM | 0.914 | > 1.02 µM | 0.587 | 0.582 µM
6 | NCI-H2444 (non-small cell lung carcinoma, adherent) | 0.93 | > 5.12 µM | 0.988 | > 10.2 µM | 0.869 | > 5 µM | 0.95 | > 5 µM | 0.909 | > 16 µM | 0.988 | > 32 µM | 0.988 | > 1.02 µM | 0.625 | 0.745 µM
7 | HPAC (pancreas, adherent) | 0.678 | 1.24 µM | 0.757 | 4.93 µM |  |  | 0.867 | > 5 µM | 0.665 | 3.48 µM | 0.797 | 22.7 µM | 0.979 | > 1.02 µM | 0.624 | 0.808 µM
8 | MFE-319 (endometrium, adherent) | 0.586 | 0.545 µM | 0.831 | 6.23 µM | 0.913 | > 5 µM | 0.892 | > 5 µM | 0.592 | 1.77 µM | 0.983 | > 32 µM | 0.988 | > 1.02 µM | 0.929 | > 5.12 µM
9 | SK-LU-1 (lung adenocarcinoma, adherent) | 0.641 | 0.876 µM | 0.9 | > 10.2 µM | 0.881 | > 5 µM | 0.723 | 1.62 µM | 0.642 | 2.76 µM | 0.922 | > 32 µM | 0.98 | > 1.02 µM | 0.692 | 1.29 µM
10 | PANC-02-03 (pancreas, adherent) | 0.637 | 0.827 µM | 0.982 | > 10.2 µM | 0.474 | 0.261 µM | 0.627 | 0.754 µM | 0.837 | 13.9 µM | 0.713 | 9.15 µM | 0.981 | > 1.02 µM | 0.396 | 0.156 µM
11 | NU-DUL-1 (B-cell lymphoma, suspension) | 0.608 | 0.596 µM | 0.628 | 1.33 µM | 0.87 | 3.18 µM | 0.992 | > 5 µM | 0.628 | 2.09 µM | 0.445 | 1.46 µM | 0.99 | > 1.02 µM | 0.126 | 0.0304 µM
12 | Daudi (Burkitt lymphoma, suspension) | 0.514 | 0.347 µM | 0.911 | > 10.2 µM | 0.991 | > 5 µM | 0.99 | > 5 µM | 0.634 | 2.22 µM | 0.811 | 14.3 µM | 0.991 | > 1.02 µM | 0.346 | 0.127 µM
13 | WM278 (melanoma, adherent) | 0.468 | 0.259 µM | 0.935 | > 10.2 µM |  |  | 0.542 | 0.412 µM | 0.766 | 6.65 µM | 0.979 | > 32 µM | 0.983 | > 1.02 µM | 0.735 | 1.65 µM
14 | LB373-MEL-D (melanoma, adherent) | 0.629 | 0.718 µM | 0.967 | > 10.2 µM | 0.748 | 1.58 µM | 0.694 | 1.08 µM | 0.88 | > 16 µM | 0.965 | > 32 µM | 0.986 | > 1.02 µM | 0.512 | 0.344 µM
15 | GB-1 (glioma, adherent) | 0.473 | 0.266 µM | 0.778 | 4.94 µM | 0.757 | 2.01 µM | 0.889 | > 5 µM | 0.463 | 0.777 µM | 0.677 | 6.85 µM | 0.935 | > 1.02 µM | 0.402 | 0.164 µM
16 | PCI-30 (head and neck, adherent) | 0.983 | > 5.12 µM | 0.984 | > 10.2 µM | 0.946 | > 5 µM | 0.894 | > 5 µM | 0.901 | > 16 µM | 0.976 | > 32 µM | 0.981 | > 1.02 µM | 0.906 | > 5.12 µM
17 | RF-48 (stomach, adherent) | 0.474 | 0.269 µM | 0.894 | > 10.2 µM | 0.965 | > 5 µM | 0.973 | > 5 µM | 0.679 | 3.38 µM | 0.592 | 3.7 µM | 0.979 | > 1.02 µM | 0.279 | 0.0694 µM

— the supplement of paper PMC4967469
